Laboratory results reported in PubChem BioAssay AID1240 (Sanford-Burnham Center for Chemical Genomics, 2008).
About 800 (1.6%) of roughly 50,000 compounds showed an effect of 50% or more. This is one part of the list.

target: Bcl-2-like protein 10 (Homo sapiens) (UniProt Q9HD36); assay: TR3 peptide-Bcl-B binding displacers, biochemical primary FP assay, phenotype converters (AID 1240); details: GST-Bcl-B / FITC-TR3 peptide fluorescence polarization; stronger effect = higher value; compound at 3.75 mg/L;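 also: 0% = Bcl-B with tracer peptide and DMSO and 100% = tracer peptide lacking Bcl-B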
UniProt Q9HD36, sequence (Q9HD36 whole entry, looked up): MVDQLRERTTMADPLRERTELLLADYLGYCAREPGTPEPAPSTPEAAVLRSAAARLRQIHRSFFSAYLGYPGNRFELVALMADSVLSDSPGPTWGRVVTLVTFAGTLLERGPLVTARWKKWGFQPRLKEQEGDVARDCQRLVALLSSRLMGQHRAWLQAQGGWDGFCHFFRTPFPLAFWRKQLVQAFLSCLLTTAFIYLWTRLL

Row | Structure (SMILES) | displacement
1 | C=CCNC(=S)N/N=C/c1ccc(N(C)C)cc1 | -2.8%
2 | O=C(Oc1ccc(Br)cc1/C=N/NC(=O)c1ccccn1)c1ccc(Br)cc1 | -5.9%
3 | O=C(CCc1ccccc1)Nc1ccccc1Cl | 11.1%
4 | O=c1oc2c(-c3cc(Cl)ccc3Cl)cc(O)cc2s1 | 5.3%
5 | Cc1ccc2nc(NC3=NC(CC(=O)O)C(=O)N3)nc(C)c2c1 (stereo unspecified) | -11.3%
6 | COc1ccc(C(=O)NC(c2ccccc2)c2ccccc2)cc1OC | -0.9%
7 | COc1ccc(-c2cc(-c3ccccc3)nc(-n3[nH]c(-c4ccccc4)cc3=O)n2)cc1OC | -5.1%
8 | O=C1c2ccccc2C(=O)N1CN1CCC(Cc2ccccc2)CC1 | 10.3%
9 | COc1ccccc1OCC(=O)NNC(=O)C(OC)c1ccccc1 (stereo unspecified) | -0.4%
10 | CCOC(=O)c1c(NC(=O)c2ccc(C(=O)c3ccccc3)cc2)sc2c1CCC2 | 10.7%
11 | c1ccc2c(c1)N1CCN=C1N2CCN1CCCCC1 | -5.2%
12 | CCOc1ccc(C2C(C(C)=O)=C(O)C(=O)N2CC2CCCO2)cc1 (stereo unspecified) | -2.6%
13 | Cc1ccc(N=C2NC(=O)/C(=C/c3ccc(O)c([N+](=O)[O-])c3)S2)cc1Cl | -4.1%
14 | O=C(Nc1ccc(NC(=O)c2cc3ccccc3o2)cc1)c1ccco1 | 3.7%
15 | C/C(CC(=O)Nc1cccc(F)c1)=N\NC(=O)c1ccc(O)cc1O | 1%
16 | Cc1ccc(/C=C/C(=O)Nc2nc3ccc(S(C)(=O)=O)cc3s2)cc1 | -4.4%
17 | CCOc1ccccc1-c1cc(C(=O)O)c2ccccc2n1 | -5.1%
18 | COc1ccc(/C=C2\SC(=S)N(CCCC(=O)Nc3cccc(C(=O)O)c3)C2=O)cc1 | 5.1%
19 | CCOc1ccc(-c2cc(C(=O)O)c3ccccc3n2)cc1OCC | -2.4%
20 | COC(=O)c1ccc(C2CC(=O)Nc3c2cc(Br)c2ccccc32)cc1 (stereo unspecified) | -1.4%
21 | CC(C)OC(=O)c1c(NC(=O)C2C3CCC(C3)C2C(=O)O)sc2c1CCCC2 (stereo unspecified) | -9%
22 | COc1ccc(CCNC(=O)C(=O)Nc2ccccc2C)cc1 | 10%
23 | Cc1cccc(NC(=O)C(=O)NCc2ccc3c(c2)OCO3)c1C | 5.6%

Row | Structure (SMILES) | displacement
24 | COc1ccc(N(CC(=O)N2CCCC2)S(=O)(=O)c2ccc(NC(C)=O)cc2)cc1 | -1.3%
25 | Cc1ccc(NC(=O)CC2CCCCC2)cc1 | -6.4%
26 | COc1cc(Cl)cc(/C=N/NC2=NS(=O)(=O)c3ccccc32)c1O | -0.8%
27 | CCOC(=O)c1c(NC(=O)c2cccnc2)sc2c1CCC2 | 3.1%
28 | C/C(=N\Nc1cccc2cccnc12)c1cc([N+](=O)[O-])cs1 | -3.6%
29 | O=C(Cc1ccccc1)NNC(=O)c1ccccc1C(=O)O | -4.8%
30 | CN1CCc2c(sc3c2C(=O)NC(c2ccc(Cl)s2)N3)C1 (stereo unspecified) | 4%
31 | Cc1ccnc(NC(=O)C(c2ccccc2)c2ccccc2)c1 | -8.9%
32 | COc1ccc(-n2nc3cc(C)c(NC(=O)c4cccc(OC)c4)cc3n2)cc1 | 3.5%
33 | CC(C)c1ccc(N(CC(=O)N/N=C/c2cc(Cl)cc(Cl)c2O)S(=O)(=O)c2ccccc2)cc1 | 16.5%
34 | COc1ccc(NC(=O)c2ccc(OC3CSC3)cc2)cc1 | -1%
35 | CCC(C)NC(=O)CN(c1ccc(F)cc1)S(=O)(=O)c1ccccc1 (stereo unspecified) | 4.5%
36 | NC(=O)c1ccc(NS(=O)(=O)c2ccc(F)cc2)cc1 | 2.7%
37 | O=C(Cc1ccccc1)Nc1ccc(NC(=O)c2ccco2)cc1 | -1.3%
38 | O=[N+]([O-])c1cc2c(cc1C1NN=C(c3ccccc3)S1)OCO2 (stereo unspecified) | 9.8%
39 | CC1(C)Cc2ccccc2-c2nc(NN)n(Cc3ccccc3)c(=O)c21 | 5.7%
40 | COc1ccc(N(C(C)C(=O)N/N=C/c2cccnc2)S(C)(=O)=O)cc1 (stereo unspecified) | 8%
41 | COc1cc(/C=C2\SC(=Nc3ccc(C)c(Cl)c3)NC2=O)ccc1O | -111%
42 | O=C(NCC(O)c1ccccc1)C(=O)Nc1ccccc1 (stereo unspecified) | -4%
43 | O=[N+]([O-])c1ccc(OCCCCNCCO)cc1 | 6.5%
44 | O=C(Nc1ccccc1F)c1ccccc1[N+](=O)[O-] | 17.3%
45 | CCOC(=O)c1c(-c2ccc(C)cc2)csc1NC(=O)C(C)(C)C | 7.5%
46 | O=C(CCNc1ccc(-c2ccccc2)cc1)c1ccc(Br)cc1 | -13%

Row | Structure (SMILES) | displacement
47 | Cc1ccc([N+](=O)[O-])cc1N1C(=O)C=CC1=O | 17.3%
48 | COc1ccc(C(N)=O)cc1NC(=O)c1cccc(F)c1 | 10.9%
49 | CC1=C(C(=O)Nc2ccccc2)C(c2ccc(C)cc2)NC(=S)N1 (stereo unspecified) | -3.6%
50 | COc1cc(/C=C2/SC(=S)NC2=O)ccc1OCCOCCOc1ccc(C)cc1 | 6.9%
51 | COc1ccc(CSc2nnnn2C)cc1 | 0.6%
52 | COc1ccc(-c2noc(-c3cccc(OC)c3)n2)cc1 | 11.5%
53 | O=C(O)CCCN1C(=O)/C(=C\c2ccco2)SC1=S | 12.2%
54 | CC(=O)Nc1ccc(S(=O)(=O)Nc2ccccc2C(=O)Nc2ccccc2)cc1 | -9.4%
55 | COc1ccc(C(=O)NC(c2ccc(OC)cc2)c2ccc(OC)cc2)cc1 | -12.4%
56 | COc1ccc(-c2csc(NC(=O)c3ccc(S(=O)(=O)N4CCCC4)cc3)n2)cc1C | -11.5%
57 | CC(C)c1cc(Nc2cccc(O)c2)cc(C(C)C)c1O | 3.5%
58 | CC1=C(C(=O)OCc2ccccc2)C(c2ccc(C)s2)C2=C(CCCC2=O)N1 (stereo unspecified) | 0.3%
59 | COc1cc2c(cc1OC)CC1(CCCC1)N=C2 | 8.6%
60 | Cc1ccc(NC(=O)/C=C/c2ccccc2)cc1F | 8.7%
61 | O=C(COc1ccc(Cl)cc1)Nc1ccc(F)c([N+](=O)[O-])c1 | 6%
62 | Cc1ccc(-c2nn(-c3cc(N4CCCC4)ccc3[N+](=O)[O-])c(=O)c3ccccc23)c(C)c1 | 2.1%
63 | COc1cccc(N2C(=O)C(=O)/C(=C(\O)c3ccccc3)C2c2ccc(OC)c(OC)c2)c1 (stereo unspecified) | 6.8%
64 | COc1ccc2c(c1)-c1c(ssc1=S)C(C)(C)N2C(=O)CSc1nncn1C | 10.6%
65 | O=C(Nc1ccccc1[N+](=O)[O-])c1ccc(=O)oc1 | -0.6%
66 | CCOC(=O)C(=C/C=C1/Sc2ccccc2N1C)C(=O)OCC | 131%
67 | Cc1ccc(NC(=O)c2ccc(Cl)cc2Cl)c(C)c1 | -1.3%
68 | COc1cccc(N2C(=O)C(=O)/C(=C(\O)c3ccccc3)C2c2ccc(C)cc2)c1 (stereo unspecified) | -0.7%
69 | COc1cc(SC)ccc1C(=O)N1CCc2ccccc21 | 2.9%

Row | Structure (SMILES) | displacement
70 | CCN1C(=O)C(C23CC4CC(CC(C4)C2)C3)NC1=S (stereo unspecified) | -0.4%
71 | Nc1nnc(SCC(=O)Nc2ccccc2Oc2ccccc2)s1 | -12.7%
72 | COc1cc(NC(=O)CCc2ccccc2)c(OC)cc1Cl | -6.7%
73 | Cc1cc(C)cc(OCCCCN2CCCCC2)c1 | 0.7%
74 | Cc1cc(C)nc(N2CCN(C(=O)c3cccc(Br)c3)CC2)n1 | 7.8%
75 | O=[N+]([O-])c1cccc(C2Nc3c(cccc3[N+](=O)[O-])C3C=CCC32)c1 (stereo unspecified) | 21.3%
76 | O=C(O)C1CC=CCC1C(=O)Nc1ccc(F)c(F)c1 (stereo unspecified) | -1.2%
77 | CCOC(=O)C1C(=O)CC(C)(O)C(C(=O)OCC)C1c1cccc(Cl)c1 (stereo unspecified) | -8.7%
78 | Cc1ccc(/C=C2\SC(=S)N(c3ccc(C)c(C)c3)C2=O)o1 | 14.9%
79 | COc1ccc(-n2nc3cc(C)c(NC(=O)Cc4ccccc4)cc3n2)cc1 | 3.9%
80 | CCOC(=O)c1ccc(NC(=O)CCN2C(=O)S/C(=C\c3ccccc3OC)C2=O)cc1 | 6.3%
81 | NC(=O)c1ccc(NC(=O)COc2ccc3ccccc3c2)cc1 | -5.3%
82 | CCOC(=O)C1=C(C)NC(=O)CC1c1cc2c(cc1[N+](=O)[O-])OCO2 (stereo unspecified) | 2.2%
83 | O=C(NNS(=O)(=O)c1ccc2ccccc2c1)c1ccccc1F | -15.1%
84 | CC1CCc2c(sc(NC(=O)c3cccc(C(=O)O)c3)c2C(N)=O)C1 (stereo unspecified) | -0.7%
85 | CCN(CC)CC(=O)c1ccc(-c2ccccc2)cc1 | 7.4%
86 | O=C(NC(=S)Nc1ccc(Cc2ccncc2)cc1)c1ccc(Cl)cc1 | 0.3%
87 | CCC(C(=O)Nc1cc(C(=O)OC)ccc1C(=O)OC)c1ccccc1 (stereo unspecified) | 5%
88 | CCSC1(CCC(=O)OC)C(C)=C(C)C(=O)N1Cc1ccccc1 (stereo unspecified) | 0.4%
89 | CCc1c(O)nc(SCC(=O)N2CCCCC2)[nH]c1=O | -7.3%
90 | CCc1ccc(-n2c(C)cc(/C=N/NC(=O)c3cccnc3)c2C)cc1 | -20.8%
91 | CCCCc1sc(-c2c(C#N)c(N)nc3c2CCCCC3)cc1[N+](=O)[O-] | -12.1%
92 | Cn1c(=O)cc2c3c(c(Oc4ccccc4)ccc31)C(=O)c1ccccc1-2 | 108%

Row | Structure (SMILES) | displacement
93 | COc1ccccc1N(CC(=O)Nc1c(C)cccc1C)S(=O)(=O)c1ccccc1 | 5.1%
94 | O=C1NC2=Nc3ccccc3NC(c3ccccc3)=C2C(c2ccc(OC(F)F)cc2)N1 (stereo unspecified) | 13.6%
95 | Fc1cccc(Cl)c1CSc1nnc(-c2ccccc2)o1 | -5.5%
96 | O=C(C1CCCC1)N1CCN(c2ccc(F)cc2)CC1 | -0.9%
97 | CC(C)Cc1ccc(C(C)C(=O)N2CCOCC2)cc1 (stereo unspecified) | 8.1%
98 | COc1ccc(/C=C(\NC(=O)c2ccc(Cl)cc2)C(=O)NCc2cccnc2)cc1OC | 10.8%
99 | O=C(O)CC(NS(=O)(=O)c1cc(Cl)ccc1Cl)c1ccccc1 (stereo unspecified) | 14.6%
100 | O=C(COc1ccc(Cl)cc1)NNC(=O)c1ccc([N+](=O)[O-])cc1Cl | -5.9%
101 | O=C(Nc1ccccc1-c1nc2ccccc2s1)c1cccc(Cl)c1 | 9.2%
102 | C=C(C)c1cccc(C(C)(C)NC(=O)NCc2ccccn2)c1 | 6.3%
103 | N#CC1=C(N)Oc2cc(N)ccc2C1C1CC=CCC1 (stereo unspecified) | -3.9%
104 | O=C(N/N=C/c1ccccc1F)c1ccccc1I | 18%
105 | Cc1cccc(N2CCN(C(=S)c3ccc(-c4ccc(Cl)cc4Cl)o3)CC2)c1 | 17.6%
106 | O=C(/C=C/c1ccccc1)c1cccc(N2C(=O)C3C4C=CC(C4)C3C2=O)c1 (stereo unspecified) | 10.2%
107 | C=C(C)COc1ccccc1/C=C1\N=C(c2cccs2)OC1=O | 0.7%
108 | O=C1NC(=O)N(c2ccccc2)C(=O)/C1=C\c1ccccc1OCc1ccccc1F | 15.5%
109 | Cc1cc(C)n(C2CC(=O)N(c3ccccc3)C2=O)n1 (stereo unspecified) | 0.8%
110 | COc1cccc(CN2CCN(Cc3ccncc3)CC2)c1 | -19.8%
111 | Clc1ccc(N2CCN(/N=C\C=C\c3ccccc3)CC2)cc1 | -4.7%
